# The list shows a part of the results.
# Tested on: PfHDP1 homeodomain (GST-tagged)
# Test: gcPBM binding intensity (ln(normalized median fluorescence intensity)); higher = stronger DNA binding
# Summary of the method: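 Probes on an Agilent 4 × 180k array were primer-extended, double-stranded and 36 bp long, taken from intergenic genomic regions, with negative controls added. GST-tagged P. falciparum DNA-binding domains from E. coli, about 25 μg on average, were applied to the array for 1 h in 1× PBS containing 1% milk, 0.2 mg/ml BSA, 0.5% salmon testes DNA and 0.03% Triton X-100. Binding intensity, obtained after Alexa488 anti-GST antibody detection and a 488 nm scan, is the highest Masliner-normalised natural-log median intensity across replicate spots of either probe orientation.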
row,Sequence,gcPBM binding intensity (ln)
1,ATGTAATTATAAGATTAATATACATAATTATATGTA [GTGCAC_negctrl_site458],6.13
2,AACATACATGTATATAGTACATATTACATCTGATAC [XGTACX_site3649],6.27
3,TACACAAGAAAATTCACACACACACCCATATATATA [CACACA_site3879],6.97
4,CATAGATACATACACGCACACACATATATATATATA [CACACA_site13],9.24
5,GTATTACCTTATTATTGTACTTTCATGATATATATG [XGTACX_site5382],6.91
6,TTAATGAATGGACACACACACATATATATATATATT [CACACA_site5294],6.76
7,TATTTAATTATTTGTAGTACGATTAATATTTAATGA [XGTACX_site3553],6.13
8,ATAGAATATTAATAATTAAAAATAAAATAAAATAAA [CACACA_negctrl_site1810],6.46
9,CTTAATAAGAATAAATGTACAAGGGATAAAAAATTT [XGTACX_site3213],6.84
10,ATTATATTCTTTACTACCAATTAGTAGAAAATAAAA [CACACA_negctrl_site1096],6.32
11,ATATATATATGTTTGTGTACTTATGATATCATATAA [XGTACX_site3276],8.54
12,TAAATAAATAAAAATAGTACATAATTATTATTATTA [XGTACX_site4981],6.2
13,TTTTAAAAAATATAATAATATAAATATGTTTTATAC [CACACA_negctrl_site643],6.19
14,TTAAAATAGCTAGTTTGTACATAAAATATATTACTT [XGTACX_site202],6.18
15,AATATATATATATATATTTTTGTTAGAATATGGAAT [GTGCAC_negctrl_site434],6.55
16,ATATATATGTATGTATGTACACACAAAAAATGGAAT [XGTACX_site7879],7.94
17,ATATGCTATTATATATGTACACACCAATTTATTTAT [XGTACX_site8364],7.02
18,TACAAAATAAATGGAACATGCAAAAAAATTGATTAA [TGCATGCA_site790],6.56
19,AAAAAAAAAAAAAAAACACACATTTTAAGAAAAAAA [CACACA_site2926],6.46
20,TATATTAGAAAGGATACACACATATATATATATCTA [CACACA_site570],6.19
21,TATACGCAGAAACACACACACATACACCCACATACA [CACACA_site1723],6.9
22,TATCTTATAAACTCTGCACACATAATATATTAAATG [CACACA_site8587],8.34

row,Sequence,gcPBM binding intensity (ln)
1,TTAATTAATTTTTCAGTGCAAATAAAAAATATTTAA,9.6
2,CAAAAGTAAGCACGCACACACAACATGAAATAAACT [CACACA_site6223],7.18
3,AAAAATTTTAATTAGGAACACACATATATATATATA [CACACA_site9016],9.03
4,AACGTTCATAATTATTGTACCCTCATTTTATTTTTT [XGTACX_site503],6.93
5,ATAACTTTTTAAAAGACACACATAAGAAAAACAAAA [CACACA_site723],7.17
6,ATAAAACGAAGATGTTGTACGTACAAATAAATGAAT [XGTACX_site2472],7.45
7,TTTAATTATAAAACGTGTACATAATTATAATTACAT [XGTACX_site2206],6.47
8,AAAAAATGGATGATCACACACTTCATAAAAATTGCA [CACACA_site5256],6.18
9,AAAAAAAAAAAAAAATGTACCCATATATAAATATAT [XGTACX_site4061],6.11
10,AAAAATAGTATAAGTAGTACAACTGAAAAGTTATGT [XGTACX_site7488],6.6
11,ATTATGTACAAAATGGTGCAATATTATACATATATA [GTGCAC_site9468],10.4
12,ATCATTTGCTCACGCACACACACATAAAAAGAAAAA [CACACA_site4349],9.55
13,TATATTAATATGAAAAGTACACATTCTATATATATA [XGTACX_site929],7.34
14,ACATAATTTGATAATACACACAAATAATCTAAAATT [CACACA_site129],6.38
15,AAAATAATCACATATTGTACAAAAAAATTTATTAAA [XGTACX_site3239],6.64
16,TTTTGAAGTAACAAATAAATAAATAAATATATAAAA [GTGCAC_negctrl_site517],6.53
17,ATTCATTCATATGTTACACACACACCGACACATAAA [CACACA_site5749],7.31
18,TATTAAACTGGACACACACACACACCCATATATAAA [CACACA_site4579],6.93
19,GACTTTTCAATTTTTCGTACGTATAAATTGTATACA [XGTACX_site1488],6.47
20,TTTTGTTACTTTTATGTGCACTTATAAAACGAACTA [GTGCAC_site9551],9.96
21,CTAATATATATCAATTGTACATATTGAATAAGAACA [XGTACX_site4541],6.6
22,TTTTTATTGTTGTACTTATATTATTTTATTATTAAA [GTGCAC_negctrl_site200],6.77

row,Sequence,gcPBM binding intensity (ln)
1,AAGAAAAAATGATGAATAGAGATCAAATCTATATAT [TGCATGCA_negctrl_site29],6.23
2,AAATTATGTGCCAATACACACACACCGATATATATA [CACACA_site8050],6.83
3,TAGTTTTTATATAGCACACATATTGTGATTATGTAT [CACACA_site1196],6.83
4,TTTATATATAAATATATATATATATATATATATATA [TGCATGCA_negctrl_site121],9.28
5,ATAATATAGAAACACACACACATATATATATACATT [CACACA_site555],6.74
6,TACTACCACGGACATGCATGCACATTATTACTCTAA [TGCATGCA_site313],8.28
7,AATTCATTTTACCCATGTACACAATTATATTTTATA [XGTACX_site4127],6.79
8,TTCTTAGATTGTACAGTACACACCTTTAGAATGTTA [CACACA_site212],6.73
9,TTTATTATCTTATTCACACACATATATAAATATGTA [CACACA_site7369],6.77
10,AAAAAAAAAACATACACACACACAAATATTTATATA [CACACA_site437],6.83
11,AACATAATAAAAAAACGTACATAATTTTATATACAT [XGTACX_site6602],6.37
12,ATATATCCAATATATATATATATATATATATATATA [CACACA_negctrl_site160],9.45
13,ACATTCATAAAAAAAAGTACATTTTTTATAAAAGAA [XGTACX_site6197],6.47
14,TTGTTAAATATTTATAAAATGAATTTAAAATGTACT [CACACA_negctrl_site665],6.13
15,TATATTTAGAATACAATCTTAAAGTTGAAATAAAAT [CACACA_negctrl_site1292],6.03
16,ATAGTTTTACACATTTGTACATAATTTACAACAAAA [XGTACX_site25],7.04
17,TTTCCGTATAATTTTGCACACGAATATAAATTTGAT [CACACA_site137],10.3
18,ATAGTATCTGGTAGCTGTACGAGTCGTATAGTGCAG [XGTACX_site2542],6.7
19,AAAAAATATTATATATGTACATAATATTTTTTTTTT [XGTACX_site5909],6.16
20,TTTAATCAAATTAAAAGTACAGAATTGTTCATGTAG [XGTACX_site1229],5.92
21,ATATATATATATTCCACACACACACTAATAAAAAAA [CACACA_site9214],8.59
22,TGTTTTTGTGATCATATGAAAAAATTACCTACAAGG [CACACA_negctrl_site279],6.42

row,Sequence,gcPBM binding intensity (ln)
1,AGTAGATATAAAAGGAGTACACATATATATATAAAT [XGTACX_site4375],6.87
2,CATATACAGAAACACACACACACATAAATAAATATA [CACACA_site1343],6.84
3,TTTAATTAAATATGTATATATATTCATGTATGTATA [GTGCAC_negctrl_site14],6.53
4,AATATATAAGTGTTGTGTACTAAAGTATTTTCCTAT [XGTACX_site1622],6.55
5,AAAAAAAAAAGACACACACACATATTTATTTATATA [CACACA_site6484],6.47
6,TTTGAAATAAATAATGCACACTCTACATATATACGT [CACACA_site2244],10.6
7,CCTATCCATACATATACACACATATCTATTTATATA [CACACA_site1669],7.14
8,CAACATTTATATTTTACACACATCATTTAAGCGCTT [CACACA_site992],6.76
9,TTATTATATAAAATAAATAACAAAAAAAATAAAATA [GTGCAC_negctrl_site548],6.43
10,ATTGTTTTATATAGAACACACATAAAAATCTATATG [CACACA_site6681],6.42
11,AAATAAAATACAAGTTGTACTATAAGCTTTTTATAT [XGTACX_site8021],6.43
12,AATATGGTTATATATATATATATATATATATATATT [GTGCAC_negctrl_site566],7.61
13,TATATATATATATATACATGCATATTTTTTATTTTT [TGCATGCA_site464],9.46
14,TGTCTTATATATATTACACACTATATGAAAAAATAT [CACACA_site1487],6.9
15,TATATTTATCTGATAACACACATAAATTAGACATTT [CACACA_site6887],6.39
16,TTTTTTATATATATTTGTACATATTGCATGTTCCCT [XGTACX_site7143],7.27
17,TAAAGTATTACAACCACACACACACCGATATATTAT [CACACA_site9382],6.78
18,AAAAGAAATTTGGGCACATGCGAATTTATAATTTAT [TGCATGCA_site960],6.58
19,TAATTTAATAATTAGACACACATGTCTAAAATAAAA [CACACA_site2527],6.01
20,TATATATTCTTTTAATGTACATATTGTATTATATCC [XGTACX_site4501],6.56
21,ATATATTTAAACAAAAGTACAAATCATAAATTCAAG [XGTACX_site3633],6.07
22,ATTTTTTAAAAAGTAACACACACTCTTATATATAAT [CACACA_site9206],6.64

# Source: the supplement of paper PMC11417369
